Among all 410,000 compounds or so, about 6,400 (1.6%) were called active. Inconclusive results, whose numbers are uncertain, are shown with a selection of clear calls. Calls follow the shape of the dose curve; as a rule, active = well fitted inhibition curve with a large enough effect; inconclusive = small, poorly fitted or top-dose-only effect; inactive = no such curve, though single readings can be large or run the other way. Potencies of inconclusive entries are left out as doubtful fits.
Target: Glucagon-like peptide 1 receptor (Homo sapiens) (UniProt P43220)
Assay: qHTS of GLP-1 Receptor Inverse Agonists (Inhibition Mode); also: nearly all actives have a fitted effect of over 55% in size
Conditions: HEK293 GLP-1R CRE-luciferase, luminescence, 24 h, GLP-1R form is constitutively active; series mostly up to 38.3 µM
Outline: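 Using stably transfected HEK293 (constitutively active GLP-1R, cAMP-luciferase reporter), compounds were incubated 24 hr and luciferase measured by luminescence.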
Potency is read from the fitted curve at half-maximal effect; tags tell the direction and shape of the fitted curve.

UniProt P43220, sequence (P43220 whole entry, looked up): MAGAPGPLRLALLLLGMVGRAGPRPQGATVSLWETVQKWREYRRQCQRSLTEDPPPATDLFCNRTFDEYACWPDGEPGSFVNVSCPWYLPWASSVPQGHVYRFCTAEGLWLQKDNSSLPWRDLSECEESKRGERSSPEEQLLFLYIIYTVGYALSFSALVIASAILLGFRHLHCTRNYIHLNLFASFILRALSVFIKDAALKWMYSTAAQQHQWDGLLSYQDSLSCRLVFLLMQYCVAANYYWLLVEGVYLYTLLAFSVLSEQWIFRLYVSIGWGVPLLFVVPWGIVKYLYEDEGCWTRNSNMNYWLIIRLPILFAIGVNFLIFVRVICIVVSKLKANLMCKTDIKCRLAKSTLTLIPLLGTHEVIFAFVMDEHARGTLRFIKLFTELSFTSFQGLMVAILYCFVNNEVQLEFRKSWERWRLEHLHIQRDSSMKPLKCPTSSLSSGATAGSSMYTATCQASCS

Structure (SMILES) | Potency
COc1ccc([C@H]2N[C@]3(CCCN(Cc4ccc(Br)cc4)C3=O)[C@H]3C(=O)N(Cc4ccccc4)C(=O)[C@@H]23)cc1 | inconclusive [inhibitor, single point]
Cc1ccc(CN2CCN(Cc3cnn(-c4ccc(Cl)cc4)c3)CC2CCO)o1 (centres undefined) | inconclusive [inhibitor, single point]
CCOC(=O)c1cccc(NC(=O)Nc2ccc(OCC)cc2)c1 | inconclusive [inhibitor, single point]
C#CCNC(=O)C[C@@H]1C[C@@]2(C(=O)OCC)CCCC=C2N(CCCCCCCC)C1=O | inconclusive [inhibitor, single point]
CCCCCCC1CCC(C(=O)NC(CCSC)C(=O)NC(C(=O)OC)C(C)C)CC1 (centres undefined) | inconclusive [inhibitor, full curve]
Cc1cc(C(C)(C)C)cc(C)c1Cn1c2[n+](c3ccc(C(F)(F)F)cc31)CCCCC2 | inconclusive [inhibitor, single point]
Cc1ccc(-c2cc(C(=O)N3CCN(c4ccccc4)CC3)c3ccccc3n2)cc1C | inconclusive [inhibitor, partial curve, poor fit]
COC(=O)c1cc(NC(=O)CCc2c(C)nc3cc(-c4ccccc4)nn3c2C)cc(C(=O)OC)c1 | inactive
CC1CCN(S(=O)(=O)c2cc(C(=O)Nc3ccc(Br)cc3F)n(C)c2)CC1 | inconclusive [inhibitor, single point]
Nc1nonc1/C(=N/O)N1CCN(CCO)CC1 | inactive
COc1ccc(C)cc1NC(=O)Cn1cc(S(=O)(=O)Cc2ccccc2Cl)c2ccccc21 | inconclusive [inhibitor, single point]
O=C(NCCCN1CCOCC1)c1ccc2c(c1)N(Cc1cccc(F)c1)C(=O)c1ccccc1S2 | inconclusive [inhibitor, single point]
Cc1ccc(C(=O)CNc2ccc(Cl)cc2)cc1 | inactive
Cc1nc2ccccn2c(=O)c1NC(=O)c1ccc(Br)o1 | inactive
Cc1cccc(CC(=O)NCCc2csc(-c3ccc(C(F)(F)F)cc3)n2)c1 | inconclusive [inhibitor, partial curve, poor fit]
Cc1ccc(NC(=S)NNC(=S)NNc2ccccc2)cc1C | inconclusive [inhibitor, single point]
Cc1ccc(-c2csc3n[nH]c(=S)n23)cc1 | inactive
CN(C)c1ccc(/C=N/n2c(COc3ccccc3)n[nH]c2=S)cc1 | inactive
COc1ccccc1CNC(=O)C(CC(C)C)N1Cc2ccccc2C1=O (centres undefined) | inconclusive [inhibitor, partial curve]
CCOC(=O)c1ccc(N2C(=O)c3n[nH]c(-c4ccco4)c3C2c2ccc(F)cc2)cc1 (centres undefined) | inconclusive [inhibitor, partial curve, poor fit]
CCn1c(CC(=O)Nc2ccc(C)cc2)nnc1SCC(=O)N1CCN(c2ccccc2)CC1 | inconclusive [inhibitor, single point]
CN1CCN(S(=O)(=O)c2cnccc2N2CCN(c3cccc(Cl)c3)CC2)CC1 | inconclusive [inhibitor, single point]

Structure (SMILES) | Potency
CC(C)OCc1cc(CN2CCN(c3ccccc3)CC2)c(O)c2ncccc12 | inconclusive [inhibitor, partial curve, poor fit]
OC(Cc1ccccc1)c1ncc(-c2ccc3ccccc3c2)[nH]1 (centres undefined) | inactive
COc1cccc(-c2ncc3ccccc3c2COC(=O)c2ccc(C(C)(C)C)cc2)c1 | inconclusive [inhibitor, partial curve, poor fit]
CN(CC(=O)Nc1ccc(OC(F)(F)F)cc1)C(=O)/C=C/c1cc2c(cc1[N+](=O)[O-])OCO2 | inconclusive [inhibitor, single point]
Cc1cccc2c1-c1sc(C(=O)N3CCN(c4cccc(Cl)c4)CC3)cc1CO2 | inconclusive [inhibitor, single point]
Cc1nc(C(=O)Nc2cccc(Cl)c2)nn1-c1cc(OC(C)C)c(Cl)cc1Cl | inconclusive [inhibitor, partial curve, poor fit]
O=C(Nc1ccccc1N1CCN(C(=O)c2ccc(Cl)cc2)CC1)c1cccc([N+](=O)[O-])c1 | inactive
O=C(Cc1csc(NC(=O)Nc2ccc(Cl)cc2)n1)NC1CCCC1 | inconclusive [inhibitor, partial curve, poor fit]
COC(=O)Cn1c(=NC(=O)c2sc3ccccc3c2Cl)sc2cc(S(N)(=O)=O)ccc21 | inactive
Cc1cc(=O)n2nc(N3CCCC(C(=O)N4CCc5ccccc54)C3)sc2n1 (centres undefined) | inconclusive [inhibitor, full curve, poor fit]
O=C(CNc1cccc(S(=O)(=O)N2CCCC2)c1)Nc1cccc(Br)c1 | inconclusive [inhibitor, partial curve, poor fit]
N/C(=N\OC(=O)Cc1ccc(-c2ccccc2)cc1)c1ccccn1 | inconclusive [inhibitor, partial curve]
CC1CCCC(NC(=O)CSc2n[nH]c(N)n2)C1C (centres undefined) | inactive
COc1cc(OC)c(CNC2CCCCCC2)cc1Br | inactive
Cc1ccc(C)c(OC(C)C(=O)Nc2nccs2)c1 (centres undefined) | inconclusive [inhibitor, partial curve, poor fit]
O=C(Cn1c(NCCCO)nc2ccccc21)c1cccc(Br)c1 | inconclusive [inhibitor, single point]
Cc1ccc(Cl)cc1-n1ncc2c(N3CCC(C)CC3)ncnc21 | inconclusive [inhibitor, full curve, poor fit]
Cc1cc2nc(-c3cccc(NC(=O)COc4ccc(Cl)c(C)c4)c3)oc2cc1C | inactive
Cc1ccc(Nc2nc(NCCO)c3ccccc3n2)cc1C | inconclusive [inhibitor, full curve]
CCOc1ccc2nc(NC(=O)CSc3nc(SC)ns3)sc2c1 | inactive
COc1ccc(NC(=O)c2c(NCc3cccc(F)c3)sc3c2CCCC3)c(OC)c1 | inconclusive [inhibitor, single point]
CN(Cc1cnn(Cc2ccccc2)c1)C(=O)c1cccc(S(=O)(=O)N2CCOCC2)c1 | inconclusive [inhibitor, full curve, poor fit]

Structure (SMILES) | Potency
COc1ccccc1-c1cc(NC(=O)COc2ccc(C)c(C)c2)n(-c2ccccc2)n1 | inactive
COc1ccc(C(=O)NCc2ccc3c(c2)OCO3)cc1S(=O)(=O)N(C)Cc1ccccc1 | inconclusive [inhibitor, single point]
CC(C)(C)c1nnc(NC(=O)COc2ccc3c(c2)OCO3)s1 | inconclusive [inhibitor, single point]
Cc1ccc2nc(SCC(=O)Nc3cccc(S(=O)(=O)N(C)C)c3)[nH]c2c1 | inconclusive [inhibitor, partial curve]
O=C(c1ccco1)N1CCN(C(c2ccccc2Cl)c2nnnn2Cc2cccs2)CC1 (centres undefined) | inconclusive [inhibitor, partial curve, poor fit]
Cc1noc(C)c1C(=O)N(CC(=O)Nc1ccc(Cl)c(C(F)(F)F)c1)Cc1ccco1 | inconclusive [inhibitor, full curve, poor fit]
O=C(Oc1csc(=S)n1C(=O)c1ccccc1)c1ccccc1 | inactive
COc1cc(OC)c2c(-c3cccc(-c4ccc(F)c(Cl)c4)c3)cc(=O)oc2c1 | inconclusive [inhibitor, full curve]
COc1ccccc1/C=C/C(=O)Nc1ccc2c(c1)CCC2 | inconclusive [inhibitor, single point]
CCOc1ccc(NC(=O)CN2C(C(=O)OC)=C(c3ccccc3)c3cc(Cl)ccc3S2(=O)=O)cc1 | inactive
COC(=O)C1=C(c2ccccc2)c2ccccc2S(=O)(=O)N1CC(=O)Nc1ccc(OC)cc1OC | inconclusive [inhibitor, full curve, poor fit]
O=C(NNc1nc2c(F)cc(F)cc2s1)c1ccccc1 | inactive
Cc1cc(/C=N\NC(=O)CC(=O)NC2CCCCC2)c(C)n1-c1cccc(Cl)c1Cl | inconclusive [inhibitor, partial curve]
Cc1ccccc1-n1c(SCC(=O)N2CCN(c3ccccn3)CC2)nnc1N1CCOCC1 | inconclusive [inhibitor, partial curve, poor fit]
CN1CCN(S(=O)(=O)c2ccc(NS(=O)(=O)c3ccccc3)cc2)CC1 | inactive
CCCCNC(=O)C[C@@H]1C[C@@]2(C(=O)OC)CCCCC=C2N(CCC2=CCCCC2)C1=O | inconclusive [inhibitor, single point]
CCOC(=O)C1C(=O)CC(C)(O)C(C(=O)OCC)C1c1ccc(OC)cc1 (centres undefined) | inactive
CC(=O)c1ccc(NC(=O)c2cc(CC(C)C)nc3ccccc23)cc1 | inconclusive [inhibitor, partial curve, poor fit]
C=CC[C@H](CC(=O)N[C@H](CO)Cc1ccccc1)C(=O)N[C@@H](COC(=O)[C@@H](CC=C)Cc1ccc(F)cc1)Cc1c[nH]c2ccccc12 | inconclusive [inhibitor, partial curve, poor fit]
COc1cccc(CN(C)C(=O)CNC(=O)c2ccc(-c3ccccc3)cc2)c1OC | inconclusive [inhibitor, partial curve, poor fit]

Reference: PubChem BioAssay AID624417 (National Center for Advancing Translational Sciences (NCATS), 2012)
